# Screen size: about 310,000 compounds; about 2,200 (0.71%) showed an effect of 50% or more. Effects have a minus sign here. Some of the results follow. Where a SMILES comes first, the peptide text is derived from it. The star is where a group is joined. OBn = c1ccc(CO*)cc1
# Target: human ether-à-go-go-related gene (hERG) potassium channel (human, UniProt Q12809)
# Assay: primary screen, population patch clamp on CHO cells stably expressing hERG
# human ether-à-go-go-related gene (hERG) potassium channel, sequence (Q12809 whole entry, looked up): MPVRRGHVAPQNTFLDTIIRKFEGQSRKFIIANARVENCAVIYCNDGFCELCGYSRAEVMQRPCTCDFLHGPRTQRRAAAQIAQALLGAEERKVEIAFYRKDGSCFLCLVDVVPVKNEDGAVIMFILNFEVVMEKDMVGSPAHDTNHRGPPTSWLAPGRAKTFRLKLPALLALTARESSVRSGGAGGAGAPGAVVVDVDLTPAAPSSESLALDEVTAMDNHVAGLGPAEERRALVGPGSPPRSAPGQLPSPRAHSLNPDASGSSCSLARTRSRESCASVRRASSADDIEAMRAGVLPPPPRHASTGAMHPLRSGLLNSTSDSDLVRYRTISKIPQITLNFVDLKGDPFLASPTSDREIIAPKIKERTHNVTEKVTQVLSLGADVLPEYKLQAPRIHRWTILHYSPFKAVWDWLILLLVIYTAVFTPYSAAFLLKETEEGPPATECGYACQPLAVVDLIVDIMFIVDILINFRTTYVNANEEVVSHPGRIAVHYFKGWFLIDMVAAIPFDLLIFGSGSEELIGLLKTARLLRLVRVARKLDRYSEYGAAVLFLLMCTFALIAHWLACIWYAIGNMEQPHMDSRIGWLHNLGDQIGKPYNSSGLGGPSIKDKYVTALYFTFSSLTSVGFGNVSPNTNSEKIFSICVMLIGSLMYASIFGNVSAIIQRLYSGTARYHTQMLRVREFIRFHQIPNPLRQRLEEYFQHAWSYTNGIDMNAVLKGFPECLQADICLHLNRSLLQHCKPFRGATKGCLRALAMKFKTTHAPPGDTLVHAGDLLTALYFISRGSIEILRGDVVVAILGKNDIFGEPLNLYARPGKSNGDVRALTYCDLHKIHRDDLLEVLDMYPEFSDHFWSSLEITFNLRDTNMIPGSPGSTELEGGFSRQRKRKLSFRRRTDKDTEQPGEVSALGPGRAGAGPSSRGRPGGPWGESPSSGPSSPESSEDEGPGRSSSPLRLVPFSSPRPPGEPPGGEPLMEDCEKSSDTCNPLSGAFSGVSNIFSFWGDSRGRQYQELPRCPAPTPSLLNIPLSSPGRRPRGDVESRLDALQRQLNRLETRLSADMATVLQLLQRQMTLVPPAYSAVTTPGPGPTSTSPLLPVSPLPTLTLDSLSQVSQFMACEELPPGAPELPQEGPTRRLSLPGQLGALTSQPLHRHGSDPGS
row,SMILES,"hERG current change (%, negative = inhibition) at 1uM"
1,CCN(CC)c1ccc(/C=N/NC(=O)c2cccc(S(=O)(=O)N3CCOCC3)c2)cc1,-4.35%
2,CC1=CC(C)(C)Nc2ccc(OS(=O)(=O)c3ccc(C)cc3)cc21,-1.08%
3,S=C(Nc1ccccc1)N1CCOCC1,10.7%
4,COc1cc(NC(=O)Nc2cc(C)on2)cc(OC)c1OC,13.3%
5,CCOC(=O)c1cc(NC(=O)c2cccs2)ccc1N1CCOCC1,-1.73%
6,COc1ccc(C(=O)NN2C(=O)C3CCC(C)(C2=O)C3(C)C)cc1 (stereo not drawn),5.32%
7,CC(C)CCNC(=O)NC(=O)COC(=O)/C=C/c1cnc2ccccc2n1,2.97%
8,CN1C(=O)C(=O)/C(=C(/O)c2ccc(Br)cc2)C1c1ccc(Cl)cc1 (stereo not drawn),14.5%
9,COc1ccccc1NC(=O)c1nn(-c2ccc(F)c(F)c2)ccc1=O,7.47%
10,C/C(=N\NC(=O)c1ccc(OC2OCCOC2Oc2ccc(C(=O)N/N=C(\C)c3ccncc3)cc2)cc1)c1ccncc1 (stereo not drawn),3.2%
11,C=C1CCC[C@]2(C)C[C@H]3OC(=O)C(CNCCN(C)C)[C@H]3CC12 (stereo partly drawn),2.03%
12,CCOc1ccc(-c2[nH]nc3c2C(c2cccnc2)C(C#N)=C(N)O3)cc1 (stereo not drawn),0.726%
13,Cc1onc(NC(=O)CSCC(=O)O)c1Br,11.1%
14,CCOc1ccc(-c2onc(C(F)(F)F)c2-c2cscn2)c(O)c1,2.68%
15,CSc1ccc(S(=O)(=O)N(C)Cc2ccccc2)cc1,11.6%
16,CN(C)N1C(=O)/C(=C/c2ccco2)SC1=Nc1ccccc1,15.8%
17,CC(=O)N1CC(C)Oc2ccc(S(=O)(=O)NC(CC(=O)O)c3ccccc3)cc21 (stereo not drawn),14.8%
18,Cc1ccccc1COc1ccc(/C(O)=C2/C(=O)C(=O)N(CCCn3ccnc3)C2c2ccco2)cc1 (stereo not drawn),12.7%
19,COc1ccc(S(=O)(=O)N2CCOCC2)cc1N=Nc1sc(N)nc1-c1ccccc1,4.15%
20,Cc1cc(C(=O)CSc2nnc(-c3ccccc3F)o2)c(C)n1Cc1cccs1,-5.3%
21,Cc1cc(C(=O)N/N=C/c2ccc([N+](=O)[O-])cc2)c(C)o1,5.5%
22,CCOC(=O)CCc1n[nH]c(=O)[nH]c1=O,5.05%
23,COc1ccc(CNC(=O)CSCc2cnn(-c3ccccc3)c2-n2cccc2)cc1,-10.6%
24,CCCCC(=O)Nc1nnn(CCC)n1,13.1%
25,COc1ccc(/C=N\NC(=O)c2ccc(F)cc2)cc1COc1ccccc1C(N)=O,-7.94%
26,CC(=NCCN1CCCCC1)c1c(O)n(Cc2ccccc2)c(=O)[nH]c1=O,-4.59%
27,O=C(Cn1c(=O)c2cccn2c2ccccc21)NCc1cccc(F)c1,10.2%

row,SMILES,"hERG current change (%, negative = inhibition) at 1uM"
1,COc1c(C(C)C)cc(NC(C)=O)cc1C(C)C,8.49%
2,CCC1CCCCN1C(=O)CN1C(=O)CSC1=O (stereo not drawn),12.7%
3,COc1ccc(C2C(C(=O)N3CCN(c4ccccn4)CC3)CC(=O)N2c2ccc(OC)cc2)cc1 (stereo not drawn),-50.6%
4,CC1=C(C(=O)N2CCOCC2)C(c2ccc(C)cc2)NC(=S)N1 (stereo not drawn),10.5%
5,COc1ccc([C@@H]2[C@@H]3C(=O)N(C(C)(C)C)C(=O)[C@@H]3[C@]3(C)C(=O)N(c4cccc(C)c4)C(=O)N23)cc1,3%
6,COc1ccc(NC(=O)/C(=C\c2ccc(OC)c(OC)c2)NC(=O)c2ccco2)cc1,2.31%
7,CC(=O)c1ccccc1NC(=O)COC(=O)C1CCCN1S(=O)(=O)c1ccccc1F (stereo not drawn),15%
8,COc1ccccc1OC(C)c1nnc(SCC(=O)Nc2c(C)n(C)n(-c3ccccc3)c2=O)n1-c1ccccc1 (stereo not drawn),4.88%
9,CCN(CC)S(=O)(=O)c1ccc(N2CCOCC2)c(NC(=O)CC(C)(C)C)c1,8.32%
10,CC(=O)NS(=O)(=O)c1ccc(NC(=O)COc2cccc3c2OC(C)(C)C3)cc1,4.07%
11,O=C1C(C2=NC(c3ccccn3)C3C(=O)N(c4ccc(OC(F)(F)F)cc4)C(=O)C23)=C(O)c2ccccc21 (stereo not drawn),17.2%
12,Cl.NCC(=O)NCC(=O)OCc1ccccc1 (H-Gly-Gly-OBn),4.62%
13,CCc1c(C)nc2ncnn2c1N1CCC(C(=O)N2CCN(c3ccc(F)cc3)CC2)CC1,-33.7%
14,O=C(Nc1ccccc1F)N1CCC(NC(=O)C23CC4CC(CC(C4)C2)C3)CC1,13.3%
15,CCCCN(C1CCS(=O)(=O)C1)S(=O)(=O)c1ccc(OC)cc1 (stereo not drawn),-0.331%
16,Cc1ccc(CNC(=O)C2c3ccccc3C(=O)N(C)C2c2c[nH]c3ccccc23)o1 (stereo not drawn),2.99%
17,CC(=O)Nc1ccc(C(=O)n2cnc3cc(C)c(C)cc32)cc1,5.02%
18,CC(C)C[C@H]1CN=C(Nc2ccccc2)N1CCC1CCCC1,-21.4%
19,Cc1ccc(S(=O)(=O)c2n[nH]n3c2nc(=O)c2ccccc23)cc1,3.8%
20,COc1ccc(N2CCCC2)c(NC(=O)COc2ccccc2)c1,9.19%
21,O=C(COc1ccc2c3c(c(=O)oc2c1)CCC3)NCCN1CCOCC1,3.14%
22,O=C(COC(=O)C1CC(=O)N(c2ccc3c(c2)OCCO3)C1)Nc1ccc2c(c1)CCC2 (stereo not drawn),10.3%
23,CC(C)CCNC(=O)NC(=O)COC(=O)C1=COCCO1,15.9%
24,CC1(C)Cc2c(c(-c3ccccc3)nc3[nH][nH]c(=O)c23)CO1,2.61%
25,CCc1nc(-n2[nH]c(=O)c3ccccc3c2=O)c2c3c(sc2n1)CCCC3,13.1%
26,CCN(CC)S(=O)(=O)c1ccc(N2CCOCC2)c(NC(=O)CN2C(=O)NC(C)(c3ccccc3)C2=O)c1 (stereo not drawn),9.74%
27,COc1ccc(OC)c(/C=N/NC(=O)CCc2ccc(O)c(O)c2)c1,1.21%

# Source: publication PMC4336329 (PLoS ONE, 2015)
